The results in this text go back to article PMC7819943, “Rice protein-binding microarrays: a tool to detect cis-acting elements near promoter regions in rice”.

This is one part of the list.

This experiment has as its target T1, OsWOX13 (Oryza sativa, UniProt Q5QMM3 1-267).
T1 sequence: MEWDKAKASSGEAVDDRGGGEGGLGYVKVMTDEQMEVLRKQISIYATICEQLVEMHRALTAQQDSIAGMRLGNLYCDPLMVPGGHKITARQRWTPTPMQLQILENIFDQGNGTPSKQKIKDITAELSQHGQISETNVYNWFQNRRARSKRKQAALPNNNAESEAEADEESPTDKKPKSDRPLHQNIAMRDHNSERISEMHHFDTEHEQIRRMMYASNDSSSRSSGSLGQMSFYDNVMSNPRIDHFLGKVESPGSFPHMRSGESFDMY
The experiment is described as follows: protein-binding microarray (RPBM); PBS, 2% BSA, 51.3 ng/ul salmon testes DNA, 50 uM zinc acetate, 200 nM TF, 25 C, 1 h; high values mean tight binding. The settings on record: protein: recombinant; tags: N-terminal polyhistidine and DsRed monomer fusion (pET32a); label: CyDye5-dUTP incorporated in the synthesized complementary strand; 3' TTTTT single-stranded linker to array surface; dsDNA, one strand shown. In short, it runs like this:
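In PBS with 2% BSA, salmon testes DNA and 50 µM zinc acetate, 200 nM protein was incubated on a custom Agilent array at 25 °C for 1 h and then washed off. The array had been made double-stranded by primer extension with Cy5-dUTP and blocked with 2% BSA. The proteins were transcription factors fused N-terminally to polyhistidine and DsRed, expressed in E. coli BL21-CodonPlus and purified on Ni–NTA. The binding signal is per-feature fluorescence intensity (arbitrary units) from an Axon 4000B scanner.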
“GACACAAACTGACTGGATTATGATGGGAGCAATCAATGATCGGAGTCACCTAGTGCAG”: the binding signal is 17600 fluorescence intensity (a.u.).
As to “CAATCCCAATCCCAATCAATCCCTCTCTCCATCTGGTGCTCGGAGTCACCTAGTGCAG”, the binding signal is 14500 fluorescence intensity (a.u.).
With “ATCTTGCTGATTTTGTTGTTGATTTGAATGCTATGTAAACCGGAGTCACCTAGTGCAG” the figure was 11600 fluorescence intensity (a.u.); with “GTTTAATCTGTCACTGTCAGTCTGACACCCAAATTACTATCGGAGTCACCTAGTGCAG”, 11400 fluorescence intensity (a.u.).
With “TGCTTATCTGATTAAAATTTGATTGTACCATTGAATTAGTCGGAGTCACCTAGTGCAG”, the binding signal was 26800 fluorescence intensity (a.u.).
As for “CCGGATGACATGATGACACCGCTACCCATTAAGTTTCGTCCGGAGTCACCTAGTGCAG”, the binding signal was 6720 fluorescence intensity (a.u.).
With “GAGATTGACGAAGTCACCATAGACATCTTGCTATCGACGGCGGAGTCACCTAGTGCAG”, the binding signal was 37300 fluorescence intensity (a.u.).
Regarding “AACCTGTCACTTTCACCTATTATTATTACTGGATTATTACCGGAGTCACCTAGTGCAG”, the binding signal was 3550 fluorescence intensity (a.u.).
For “ATCCTAATTAATAGATACAATTGCCTCCTCAGGACTTTATCGGAGTCACCTAGTGCAG”, the binding signal was 18100 fluorescence intensity (a.u.).
In the case of “TACTAACTCCAAATCATCAATAGTCAATTTAATAGCCAACCGGAGTCACCTAGTGCAG”, the binding signal is 6420 fluorescence intensity (a.u.).
For the sequence “TGATAAATTAATTCGAACAGATACGATGTTTATGGTAGCGCGGAGTCACCTAGTGCAG”, the binding signal is 24700 fluorescence intensity (a.u.).
As to “TCAAGAATTATAGTTGATTTTATATTGGAGATTTGTTAACCGGAGTCACCTAGTGCAG”, the binding signal is 4000 fluorescence intensity (a.u.).
To “CTGAAAGGCAATTAAGACACAACCCTCAGAAGTACTTACCCGGAGTCACCTAGTGCAG” belongs 10100 fluorescence intensity (a.u.).
In the case of “TTGATATATTTACATTGTAATTTTCAAATCTTACATGTAACGGAGTCACCTAGTGCAG”, the binding signal was 5100 fluorescence intensity (a.u.).
Turning to “GATCCAAATTGATGAAGTTTACAGCAGCAGCAGTAACAGTCGGAGTCACCTAGTGCAG”, the binding signal was 28900 fluorescence intensity (a.u.).
To “TCTCCAGATTGGTGGCAATCCCTTGCCGCGTGTCCACCTGCGGAGTCACCTAGTGCAG” belongs 5490 fluorescence intensity (a.u.); to “GGGTTAATTAATACTCCCTTCGTTTGTTTCATATTATAAGCGGAGTCACCTAGTGCAG”, 26400 fluorescence intensity (a.u.); to “ACCTTTTCCGCGTGTTGTGTCTGTTTGTTGAAGATGAATTCGGAGTCACCTAGTGCAG”, 3280 fluorescence intensity (a.u.).
With “CGACAAATTATTTGAAACAAGCAGGAGATTGAACTGCTACCGGAGTCACCTAGTGCAG” the figure was 15100 fluorescence intensity (a.u.); with “GTAGTTAACCATTTAACCTGATGATGTGAGGACGAAAGAACGGAGTCACCTAGTGCAG”, 4950 fluorescence intensity (a.u.); with “GTGATTTTATTAAATCTCGAGATATATCGTTTCAAGGTTGCGGAGTCACCTAGTGCAG”, 3750 fluorescence intensity (a.u.).
To “TGAAATTTTAAAATTTTAATTGTACACATTCTATAATGCACGGAGTCACCTAGTGCAG” belongs 26400 fluorescence intensity (a.u.); to “ATTAATTACACAATCGTGCGGTCGGTACAGGCCTCACAAGCGGAGTCACCTAGTGCAG”, 13300 fluorescence intensity (a.u.).
On to “AATCATTTTCCATCACATCAACCTGTCATACACACATAACCGGAGTCACCTAGTGCAG”, for which the binding signal is 5620 fluorescence intensity (a.u.).
As for “AAGCGAGCAGCTCTGATTGTTTACACATTACGACAACACTCGGAGTCACCTAGTGCAG”, the binding signal was 3520 fluorescence intensity (a.u.).
To “ACAAATTACCTAGAGTATATCAAGAGAGAGAAGAATGGAGCGGAGTCACCTAGTGCAG” belongs 3250 fluorescence intensity (a.u.).
As for “GACAGGATTATCACCTATTTGTCAACAGTTCACCAGGAGCCGGAGTCACCTAGTGCAG”, the binding signal is 3360 fluorescence intensity (a.u.).
For the sequence “GTAATTAGATAATCGATTAGCAGATGCTAAGCAAGAATGCCGGAGTCACCTAGTGCAG”, the binding signal is 22600 fluorescence intensity (a.u.).
To “TCAGACGAGACTGGTGGTGGGGTCAGGTGGGTTACTCGTCCGGAGTCACCTAGTGCAG” belongs 3810 fluorescence intensity (a.u.).
Take “GTGAGAATGGATTTAAATTGAAGGTAAATGTATGGTTTTCCGGAGTCACCTAGTGCAG”: the binding signal is 19600 fluorescence intensity (a.u.).
With “CAAACAATTGAGGCCCGCTTAATTTACATTATTAAGTGAACGGAGTCACCTAGTGCAG” the figure was 3850 fluorescence intensity (a.u.).
Take “AAAATTTAACAGAACTAATTTAATATTTTAGAAGTTGCTACGGAGTCACCTAGTGCAG”: the binding signal is 34900 fluorescence intensity (a.u.).
For the sequence “TTCCAATTAGGTCGTCACATATATTTTCACCGTAGAAGTTCGGAGTCACCTAGTGCAG”, the binding signal was 9200 fluorescence intensity (a.u.).
In the case of “AATTAATTACTAGTCAAAATTTGGTCATCGGCCTGATTATCGGAGTCACCTAGTGCAG”, the binding signal is 37500 fluorescence intensity (a.u.).
With “CTGTAATTGAGTAATATTACTGTTGGTTGGCTGTTAATAGCGGAGTCACCTAGTGCAG” the figure was 42600 fluorescence intensity (a.u.); with “ACCTAGCTAACTGACTGAGATGTGACATGCTACTAGGAGTCGGAGTCACCTAGTGCAG”, 8880 fluorescence intensity (a.u.); with “ACCCTAATAAGGCGTAATTTTATTTTACGTAAACGAGTTTCGGAGTCACCTAGTGCAG”, 5660 fluorescence intensity (a.u.).
Turning to “AGTCAATTAATCATATGCTAATGACTCACCTCGTTTTGTGCGGAGTCACCTAGTGCAG”, the binding signal is 50100 fluorescence intensity (a.u.).
Regarding “AGTTGACATATTCTCATACTGATATCATGATGTTTACATTCGGAGTCACCTAGTGCAG”, the binding signal was 4880 fluorescence intensity (a.u.).
“ATATTAGATTGGTTACGGATAAATTAGAGCTAGTAGTTGGCGGAGTCACCTAGTGCAG”: the binding signal was 52200 fluorescence intensity (a.u.).
In the case of “ATTGATTGCTCTTCGTCTCCCCTGGCTATAAAACGAGCGGCGGAGTCACCTAGTGCAG”, the binding signal was 47700 fluorescence intensity (a.u.).
Regarding “TATGATAGACCAAAAGACAAACCGGAATGTCTGCTGCTAGCGGAGTCACCTAGTGCAG”, the binding signal is 10700 fluorescence intensity (a.u.).
